Data reported in paper PMC8237747 (Journal for Immunotherapy of Cancer, 2021).
One block for each binder: values may come before it.

How the values were obtained:
[1] = target: HZ-L-Yr-16-Fc; assay: ELISA
[2] = target: HZ-L-Yr-16-Fc; assay: flow cytometry on cells

binding result [1]: binds
B1: Human 4-1BB (recombinant protein, ACRO Biosystems) (receptor)
chain: not shown

binding result [2]: binds
B2: human 4-1BB overexpressed on CHO cells (CHO-hu4-1BB) (receptor)
chain: not shown
